Drawing on publication PMC6212790, this text covers binding signal for 219 sequences.

This is one part of the list. At the low end of the ranking the order means little.

For this test, the target named is T1, GST-Rok (full length) (UniProt O34857).
T1 sequence: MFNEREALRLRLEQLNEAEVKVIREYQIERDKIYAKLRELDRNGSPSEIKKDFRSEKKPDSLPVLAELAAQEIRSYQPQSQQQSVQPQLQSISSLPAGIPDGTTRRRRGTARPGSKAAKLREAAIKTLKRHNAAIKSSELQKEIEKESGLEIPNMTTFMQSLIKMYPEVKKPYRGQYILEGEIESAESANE
Description: protein binding microarray.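 Note: rank score from −0.5 (least bound) to 0.5 (best bound).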 To be noted: Rok is a gene silencer of Bacillus subtilis; high values mean tight binding; most listed sequences are background and not binding sites; double strand, one strand shown.
CATATAGC came in with a binding signal of 0.125 E-score.
The sequence ACGAACGC displayed a binding signal of -0.081 E-score.
Consider ATTGGGGA, for which the binding signal is -0.141 E-score.
To AGTCTACC belongs -0.00746 E-score; to AACAAAGA, 0.174 E-score; to CAGCCCAA, -0.236 E-score.
The same measure for CCGCCCTA: -0.212 E-score; for GAGCACTC: -0.0337 E-score; for GGCCTCTA: -0.222 E-score.
The sequence AATCCGCT showed a binding signal of -0.000445 E-score.
The same measure for AACATAGA: 0.206 E-score; for ACAGGAAC: -0.0229 E-score.
The same measure for TCCTTAGA: 0.0193 E-score.
To CAGTGCTC belongs -0.394 E-score; to ATCATTCC, 0.111 E-score.
GGCTCGGA registered a binding signal of -0.455 E-score.
To GGCGAATA belongs -0.0656 E-score; to GCTGACCA, -0.135 E-score.
The same measure for GTCGTGTA: 0.126 E-score; for ATAAGAAC: 0.0811 E-score; for TCGCGGCA: -0.187 E-score.
Turning to TCTAGTCA, the binding signal came to 0.183 E-score.
To AGGATTAC belongs -0.0868 E-score; to AAGGCTCC, -0.234 E-score; to CGAACGTA, 0.0863 E-score.
TATGATAA gave a binding signal of 0.267 E-score.
GCATAGCA showed a binding signal of -0.0988 E-score.
To ATAAATAT belongs 0.339 E-score.
To GCACGGCA belongs -0.074 E-score; to GGAATGCA, -0.274 E-score; to CAAATAGC, 0.209 E-score.
To TAAGCGCA belongs -0.154 E-score; to AGCGGATA, 0.286 E-score; to ACGCGGTG, -0.342 E-score.
TACCAACA yielded a binding signal of -0.000134 E-score.
Sequence AATAATAG came in with a binding signal of 0.388 E-score.
The same measure for GTGGAGTA: 0.107 E-score; for TGCCTTAA: -0.122 E-score; for AGAAGCCC: -0.321 E-score.
To CTCCCGAG belongs -0.27 E-score.
To AGGCGTTC belongs -0.262 E-score.
On to AAAAGTTT, for which the binding signal turned out to be 0.0316 E-score.
To CCTGAGGC belongs -0.253 E-score; to CCCAATTA, -0.0953 E-score; to TCCCAGGA, 0.00729 E-score.
The sequence ACACTTCT returned a binding signal of 0.218 E-score.
The same measure for GTTAGCGA: -0.0108 E-score; for ATAGCGAA: 0.216 E-score; for AGCGGGTA: -0.098 E-score.
The same measure for CTGGTCCA: -0.166 E-score; for ATACGGAA: 0.156 E-score; for AATAATAA: 0.364 E-score.
To GATCCCGC belongs 0.00157 E-score; to CATAGTCA, 0.0308 E-score.
GGCGTGAC: the binding signal was -0.163 E-score.
The same measure for AGGGGTAC: -0.221 E-score; for ACTTCGTA: 0.218 E-score.
The same measure for GAAAAACA: 0.0387 E-score; for AGAGACCT: -0.154 E-score.
The same measure for CTCGAGAC: 0.0177 E-score; for AGTGTTTG: 0.11 E-score.
Turning to AACTGCGT, the binding signal is -0.11 E-score.
To ATAGAACC belongs 0.202 E-score; to AAAGGATT, -0.227 E-score.
The same measure for CTTGTATC: 0.0396 E-score.
Sequence AGTTTATC showed a binding signal of 0.209 E-score.
The sequence CAAGCCCG showed a binding signal of -0.236 E-score.
The same measure for ATTGTATC: 0.266 E-score; for GTGGCACA: -0.204 E-score.
Sequence ACGCTGGA displayed a binding signal of -0.115 E-score.
The same measure for GCGATACC: 0.0255 E-score.
The same measure for GTGACCAA: -0.121 E-score; for AGAACACT: 0.0519 E-score.
To AATTTACA belongs 0.305 E-score; to CATGCGTA, -0.0764 E-score.
AGACATCA returned a binding signal of 0.0172 E-score.
To GGACGCCC belongs -0.466 E-score.
To ACTGTCCA belongs 0.0579 E-score; to GATATTAA, 0.365 E-score.
In the case of GGATATAA, the binding signal came to 0.271 E-score.
The same measure for AAGCCCAA: -0.205 E-score; for CTGTGTCA: -0.136 E-score; for ACCGGAGT: -0.202 E-score.
To CGGTCACG belongs 0.0659 E-score; to ACCTATTC, 0.0385 E-score; to CCGGTCCG, -0.0631 E-score.
To CGTACGAC belongs -0.082 E-score.
Sequence ACCGGTCG gave a binding signal of -0.168 E-score.
The same measure for TAGTCTAA: 0.089 E-score.
Take CTGTACTA: the binding signal is 0.112 E-score.
TACCCCCA gave a binding signal of -0.318 E-score.
The same measure for AGTCCTTG: -0.0751 E-score; for AAAAGGCC: -0.0791 E-score.
To TTCAAGAA belongs -0.0452 E-score; to GCAGCGCC, -0.314 E-score; to ACCTGCTC, -0.309 E-score.
The same measure for CGTACAGA: 0.152 E-score.
Consider GGATGTGA, for which the binding signal came out at 0.0951 E-score.
The same measure for ACCTCGTC: -0.19 E-score; for CTGTGCAC: 0.0294 E-score; for ACTGTGTA: 0.128 E-score.
The same measure for CGGCGTTC: -0.211 E-score.
To GCAGTGCA belongs -0.00341 E-score.
Turning to CGATGTCA, the binding signal amounted to 0.0419 E-score.
To GTAATCGA belongs -0.031 E-score; to CCATACGA, -0.0347 E-score.
To CAATCCCG belongs -0.105 E-score; to GACTTTCA, -0.125 E-score.
In the case of TCGTACGA, the binding signal was -0.131 E-score.
Turning to GGTCCTGA, the binding signal is -0.195 E-score.
For the sequence CAATACGA, the binding signal turned out to be 0.00373 E-score.
The same measure for GGCGCACC: -0.349 E-score; for TGTTATAA: 0.228 E-score.
The sequence GAATGCGC gave a binding signal of -0.159 E-score.
The same measure for AGGAAAAA: -0.0677 E-score; for GCATGATA: 0.164 E-score; for GATCACGA: -0.0641 E-score.
To AAGCATAT belongs -0.0351 E-score.
The same measure for ATGCGAAC: -0.0522 E-score; for CCAAATGC: 0.122 E-score; for CCCTGCCG: -0.343 E-score.
AAAGACAC showed a binding signal of -0.0588 E-score.
AATAGCGC gave a binding signal of 0.0664 E-score.
The same measure for CTCCTGGC: -0.275 E-score; for CAATCCGG: -0.187 E-score; for ACCCGTTG: -0.214 E-score.
The same measure for AGCCCCCC: -0.429 E-score; for ACACCGAG: -0.0983 E-score.
The same measure for GTCAGTAA: 0.00175 E-score.
In turn, AAATATTG came in with a binding signal of 0.295 E-score.
To CGACCCTC belongs -0.225 E-score; to AACCGAAG, 0.0965 E-score.
To CGGAAGGA belongs -0.314 E-score.
To CGCCATAA belongs 0.0158 E-score; to GCACGCAA, -0.218 E-score; to AAGGAGCC, -0.383 E-score.
As for AGCTGACG, the binding signal was -0.224 E-score.
To CTGTGGTC belongs -0.242 E-score; to CGACAGCA, -0.204 E-score; to CAGAAGTC, -0.0731 E-score.
To AACACGAC belongs -0.0443 E-score; to AACACCGA, -0.0684 E-score; to AATAGAAA, 0.371 E-score.
To AGTCGAGC belongs -0.23 E-score; to GTTGTGGA, -0.0475 E-score.
ACGACTAC registered a binding signal of 0.134 E-score.
To CATTGAAC belongs 0.0412 E-score; to CGAACCGA, -0.121 E-score.
ACAGGAGG gave a binding signal of -0.215 E-score.
To GCGCGACC belongs -0.257 E-score; to CTAGGATC, 0.034 E-score; to ACGTCGGC, -0.2 E-score.
The same measure for ACCCACTA: 0.0873 E-score.
To ATAGCCAG belongs -0.166 E-score; to ATGGGGAC, -0.174 E-score; to ATTTGCTC, 0.151 E-score.
On to GTCCATGA, for which the binding signal was -0.165 E-score.
The same measure for GCGACTCC: -0.221 E-score; for CGAAACAG: -0.14 E-score; for GAGATTAA: 0.223 E-score.
The same measure for CACCACCG: 0.0663 E-score.
To CTACCAGA belongs 0.218 E-score.
In turn, ACAATTGG had a binding signal of 0.119 E-score.
The same measure for ACGCATTC: -0.136 E-score; for GGATGCGA: -0.225 E-score; for ACGCGTTG: -0.0571 E-score.
ACTGAGCT: the binding signal came out at 0.0701 E-score.
The same measure for TAATGAGA: 0.155 E-score.
To CCGAACGA belongs -0.122 E-score; to GAGCCGCC, -0.216 E-score; to CAGGATTA, 0.0318 E-score.
AATTTGGA: the binding signal was determined as 0.0892 E-score.
GCACGCAC gave a binding signal of -0.0999 E-score.
Consider ACCGATCG, for which the binding signal was -0.0485 E-score.
CGCCAGAA: the binding signal is -0.119 E-score.
To AGTGTCTC belongs -0.17 E-score; to ACTAAAGT, 0.109 E-score; to CGTACCAA, 0.0712 E-score.
The same measure for AAGGCTGA: -0.082 E-score; for AGTGGTCC: -0.177 E-score.
For the sequence CACATAGA, the binding signal is 0.254 E-score.
In turn, CTTAGGCC displayed a binding signal of -0.319 E-score.
Regarding GATCTCTA, the binding signal was -0.054 E-score.
GCTCAGTA displayed a binding signal of 0.122 E-score.
The same measure for TAAACCTA: 0.181 E-score; for TATCCCCA: -0.202 E-score; for CCCCCTAG: -0.298 E-score.
Take CAAGAGAC: the binding signal was -0.191 E-score.
The sequence ATCATGGC displayed a binding signal of 0.000586 E-score.
To AAAGCTAG belongs 0.152 E-score.
The same measure for GCACTAGC: -0.166 E-score.
To GGATAATA belongs 0.287 E-score; to CGGGACGA, -0.0426 E-score; to CGGCCTTA, -0.267 E-score.
GAGGAATC showed a binding signal of -0.0594 E-score.
To GCCAATAA belongs 0.231 E-score.
The same measure for AACGCAAA: 0.0745 E-score.
As for TCGTTACA, the binding signal was 0.184 E-score.
Turning to AGTATTCG, the binding signal came out at 0.0541 E-score.
The same measure for CACTCAGC: -0.0194 E-score; for GCGTCTCC: -0.259 E-score.
The same measure for ATGGAAAG: 0.0377 E-score; for GCGGCTCA: -0.284 E-score; for CGTAACGC: -0.0429 E-score.
AAAGGGTT showed a binding signal of -0.0772 E-score.
The same measure for CCGCAGTC: -0.281 E-score; for GTGAACAC: 0.0524 E-score; for GAGTTTGA: -0.199 E-score.
The same measure for CGCACCCG: -0.282 E-score; for AGACGGCG: -0.192 E-score; for CACTATGC: 0.152 E-score.
To CATATCCG belongs 0.112 E-score; to TGCGCCAA, -0.208 E-score; to GGCCTACA, 0.0878 E-score.
Turning to CGCGCATC, the binding signal was -0.123 E-score.
To GGTTGGAA belongs -0.0516 E-score; to ATCGCACG, -0.15 E-score.
The same measure for TGATTTAA: 0.0613 E-score; for CAAAACCC: -0.244 E-score.
